According to the supplement of paper PMC4466236:
Whole data set: some 33,000 sequences, median “E-score (dimensionless, -0.5 to 0.5)” near -0.058, cut for the highest 2% near 0.35. The list shows a part of the results.

Test system: MvaT
Assay: PBM 8-mer E-score (mean of HK and ME arrays) (E-score (dimensionless, -0.5 to 0.5)); higher = stronger relative binding preference; most listed sequences are background and not binding sites
Method in brief: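 Full-length P. aeruginosa MvaT carrying an N-terminal glutathione S-transferase tag was tested by protein binding microarray following a previously described protocol. Two universal double-stranded 60-mer arrays, ME and HK, were used, each with a constant 25-mer primer region and a variable 35-mer region covering all 8-mers. The rank-based E-score is the mean of the two arrays, parsed with a custom script. Its range runs from -0.5 to 0.5 for each 8-mer.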

Sequence	PBM 8-mer E-score
ACTGTAAT	0.351
ACGCCGTG	-0.267
ATTCTCAC	-0.0138
GCCGCGAC	-0.169
AATCATCG	-0.00377
GGGCGACA	-0.032
ATCCCGAG	-0.0733
ATTAGGCC	-0.0555
GAGGAATA	0.197
CATGTTAA	0.25
ACCAGTCC	-0.112
ACTTTTTG	0.122
GTACTACA	0.143
TAGAATGA	0.0266
GACTTATC	0.0104
CACTTGAC	-0.0112
AGCTACTA	0.0104
GCCCCGGC	-0.269
CGGTCCAC	-0.0723
AAGAGCCG	-0.0498
GGGCACGA	-0.214
CCTTGACC	-0.202

Sequence	PBM 8-mer E-score
GGCGAGAA	-0.105
AGTCCGTG	-0.0826
CTGAACTA	0.135
CGTCGTAG	-0.142
CGAGCGAA	-0.0361
TTGCCCAA	0.0603
GTCGAGAC	-0.164
AATTGCAG	0.102
ACGGCACG	-0.204
CGTATGTA	0.0655
TACTCACA	-0.00265
GAGGGTCC	-0.211
AACTCATG	-0.0512
GGCGGTCA	-0.208
TAGTTAAA	0.273
CATGATCC	-0.133
GCGCCGAA	-0.17
ACCCAGCC	-0.017
CAGAGCCC	-0.374
CCGTGGGA	-0.301
CCTACCTA	-0.0884
AAAGCCGA	-0.0186

Sequence	PBM 8-mer E-score
ACGTCATC	-0.144
GCCGACCC	-0.307
ACTGTTGC	0.0922
GAGTCAAA	0.0768
AGCTAAGA	-0.0322
CCATGGGC	-0.256
CATTCTCG	-0.135
GGTGTGAC	-0.159
CAACACTC	-0.147
ATTGATAC	0.206
CACATAAA	0.179
CGCCCATA	-0.0952
TAGTCAGA	-0.0711
GCCGTGTA	-0.0278
GTCTGAGA	-0.139
GACTTCCA	-0.0343
CATCTCAA	-0.0274
CTCGAAGA	-0.164
ATCTAGAC	0.00671
TGACCGCA	-0.174
CAGAATAC	0.0288
AAATCTCA	0.0206

Sequence	PBM 8-mer E-score
AATGTAAC	0.267
CCCCGCAC	-0.305
AGGGTCAC	-0.138
CCAATCCG	-0.164
GAGGGTTA	-0.201
TAAATGTA	0.359
AGCAAATC	-0.047
GGAGAGGA	-0.311
AAAAAGTT	0.357
GGACATCA	-0.143
AGATGTTA	0.303
TGAATTCA	0.141
CCACGTCA	-0.0822
GATCGTGA	-0.153
CAGATACG	-0.176
AAACGCCT	-0.177
AGATATGA	0.0699
CGCTCAGC	-0.192
GAAATGTA	0.259
CGTCTGCA	-0.193
CGAGTGAA	-0.139
CCAAGGTA	-0.18

Sequence	PBM 8-mer E-score
GGCAGGTA	-0.17
ATATTAGA	0.407
GTGTTAAA	0.177
CCATGCCG	-0.105
AAAGACTC	0.0128
AGAAACGC	-0.00638
ATGTCCGG	-0.0529
ACCGGCTA	-0.232
GGAAGCGA	-0.201
GCTTGACC	-0.22
AAGGATAA	0.282
AAAGGAGA	-0.198
GTCTTCAC	0.00606
GGGGCCTA	-0.367
CTATCAAG	-0.0772
GTAGTAAA	0.154
ACAACTAC	0.297
ATCCGCAG	-0.144
CGCTATAG	-0.0902
GCACGTAA	0.0142
GTCTTCCA	0.0231
